This is an account of results in a collection of fitness landscapes (doi:10.1016/j.celrep.2020.107928).

The chains are these.
B1: Caulobacter ParB omega fusion; a variant is named by its letters at X, in order, B8GW30 (parent)
chain: MESVVVGEPGMSEGRRGLGRGLSALLGEVDAAPAQAPGEQLGGSREAPIEILQRNPDQPRRTFREEDLEDLSNSIREKGVLQPILVRPSPDTAGEYQIVAGERAWRAAQRAGLKTVPIMVRELDDLAVLEIGIIENVQRADLNVLEEALSYKVLMEKFERTQENIAQTIGKSXSHVANXMRLLXLPDEVQSYLVSGELTAXHARAIAAAADPVALAKQIIEGGLSVRETEALARKAPNLSAGKSKGGRPPRVKDTDTQALESDLSSVLGLDVSIDHRGSTGTLTITYATLEQLDDLCNRLTRGI

Over roughly 81,000 sequences, “one-hybrid fitness for binding parS DNA” has its median near -0.17; the highest 2% begin near 0.51. The list shows a part of the results. Bounds are passed on as bounds.

This assay covers variants of B1. In words: one-hybrid fitness for binding parS DNA (scaled: cognate 1, non-cognate 0); higher = stronger binding. Conditions: with parS DNA site. In short, it runs like this: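 Caulobacter ParB libraries with four specificity codons randomised were screened by bacterial one-hybrid selection in the E. coli USO strain, using a HIS3 reporter whose site lies 19 bp from the promoter. Selection ran for 48 hours at 37°C on M9 lacking histidine, with 0.1 mM IPTG and 5 mM 3-AT. Plasmids were Illumina-sequenced before and after selection, three replicate libraries were pooled, and variants with under 10 reads were dropped. Fitness is the log change in each variant's read ratio to wild type, rescaled against the cognate and non-cognate sites.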
As to PLIN, the “one-hybrid fitness for binding parS DNA” value is ≤ 0.2. Under KQQG stands ≤ 0.2; under HAPK, ≤ 0.2. Under KPAG stands ≤ 0.2; under WHSV, ≤ 0.2. Next, ERQS: ≤ 0.2; WEDM: ≤ 0.2; KHMV: ≤ 0.2. Regarding GVCR, the “one-hybrid fitness for binding parS DNA” value was ≤ 0.2. Next, SQCR: ≤ 0.2; TKIG: ≤ 0.2; LGWQ: ≤ 0.2. Under LCNQ stands ≤ 0.2; under EHWM, ≤ 0.2; under KPGS, ≤ 0.2. Next, EMKQ: ≤ 0.2; RSGM: 0.333; DSNF: ≤ 0.2. Turning to LVQE, the “one-hybrid fitness for binding parS DNA” value is ≤ 0.2. Consider PYFM, for which the “one-hybrid fitness for binding parS DNA” value was ≤ 0.2. On to PKPR, for which the “one-hybrid fitness for binding parS DNA” value is ≤ 0.2. Next, ACGL: ≤ 0.2; SSYI: ≤ 0.2; IAWK: ≤ 0.2. For the variant ERGR, the “one-hybrid fitness for binding parS DNA” value is ≤ 0.2. Next, REAQ: ≤ 0.2; QVCE: ≤ 0.2. Next, NHKV: ≤ 0.2.

As for GATR, the “one-hybrid fitness for binding parS DNA” value was ≤ 0.2. Turning to ARML, the “one-hybrid fitness for binding parS DNA” value is ≤ 0.2. Under SIFW stands ≤ 0.2. Next, IDKS: ≤ 0.2; RFIN: 0.206.

Turning to ATFS, the “one-hybrid fitness for binding parS DNA” value was ≤ 0.2. On to RLCY, for which the “one-hybrid fitness for binding parS DNA” value is 0.485.

In the case of LTLQ, the “one-hybrid fitness for binding parS DNA” value was ≤ 0.2.

With NCLL, the “one-hybrid fitness for binding parS DNA” value was ≤ 0.2. Under DRKK stands ≤ 0.2; under LPSH, ≤ 0.2. Under HSCM stands ≤ 0.2; under RFMS, 0.983; under QCMI, ≤ 0.2.

As for TVFA, the “one-hybrid fitness for binding parS DNA” value was ≤ 0.2. In the case of MNDA, the “one-hybrid fitness for binding parS DNA” value was ≤ 0.2. Next, SRSN: ≤ 0.2; GCQM: ≤ 0.2; MQSG: ≤ 0.2. For the variant LQQY, the “one-hybrid fitness for binding parS DNA” value is ≤ 0.2. Under SKIR stands ≤ 0.2.

Turning to VHSI, the “one-hybrid fitness for binding parS DNA” value was ≤ 0.2. Next, KDSD: ≤ 0.2.

Consider GKSD, for which the “one-hybrid fitness for binding parS DNA” value was ≤ 0.2. Under ISYL stands ≤ 0.2.

As to AHDA, the “one-hybrid fitness for binding parS DNA” value is ≤ 0.2.

For YHIP, the “one-hybrid fitness for binding parS DNA” value is ≤ 0.2. Next, KVTW: ≤ 0.2; AQWS: ≤ 0.2; NFSG: ≤ 0.2. With SHLM, the “one-hybrid fitness for binding parS DNA” value is ≤ 0.2. Next, ENTM: ≤ 0.2; CDVF: ≤ 0.2. Under QKVN stands ≤ 0.2. On to SLVW, for which the “one-hybrid fitness for binding parS DNA” value is ≤ 0.2. Under IGFS stands ≤ 0.2. As for LTEQ, the “one-hybrid fitness for binding parS DNA” value is ≤ 0.2. Under LCSW stands ≤ 0.2; under DHNR, ≤ 0.2; under KAKK, ≤ 0.2. Under RSHK stands ≤ 0.2; under NLQA, ≤ 0.2; under FRGR, ≤ 0.2. Under NRMD stands ≤ 0.2; under CMKT, ≤ 0.2. YGSG: the “one-hybrid fitness for binding parS DNA” value was ≤ 0.2. Regarding FLQG, the “one-hybrid fitness for binding parS DNA” value is ≤ 0.2.

Regarding TIPV, the “one-hybrid fitness for binding parS DNA” value was ≤ 0.2. Next, GACT: ≤ 0.2; TNRV: ≤ 0.2; KDIR: ≤ 0.2. As to VTPL, the “one-hybrid fitness for binding parS DNA” value is ≤ 0.2. Under RNSH stands ≤ 0.2; under RYGG, 0.97. On to QMVL, for which the “one-hybrid fitness for binding parS DNA” value was ≤ 0.2. With MSYN, the “one-hybrid fitness for binding parS DNA” value is ≤ 0.2. Under RCKH stands ≤ 0.2. Under QCRI stands ≤ 0.2; under SRCR, ≤ 0.2. Next, QNVK: ≤ 0.2. As to EYAR, the “one-hybrid fitness for binding parS DNA” value was ≤ 0.2.

In the case of FLLG, the “one-hybrid fitness for binding parS DNA” value is ≤ 0.2. Under WVKG stands ≤ 0.2; under RMGW, 0.233; under DPSG, ≤ 0.2. Under TPLW stands ≤ 0.2; under AWAC, ≤ 0.2; under LWKM, ≤ 0.2. Next, TLRN: ≤ 0.2; NPSC: ≤ 0.2.

With SARI, the “one-hybrid fitness for binding parS DNA” value was ≤ 0.2. Under LTDP stands ≤ 0.2; under PAHL, ≤ 0.2; under PSIF, ≤ 0.2. Under TETC stands ≤ 0.2; under GPGR, ≤ 0.2.

Turning to CDVR, the “one-hybrid fitness for binding parS DNA” value was ≤ 0.2. Under MKWG stands ≤ 0.2; under GTSA, ≤ 0.2; under IART, ≤ 0.2. Under SNDY stands ≤ 0.2; under RFTP, ≤ 0.2; under PRYA, ≤ 0.2.

Regarding MDPC, the “one-hybrid fitness for binding parS DNA” value is ≤ 0.2. Under QVRP stands ≤ 0.2; under LMYC, ≤ 0.2. Under GPLC stands ≤ 0.2; under DTTV, ≤ 0.2; under LKMA, ≤ 0.2.

For PAIS, the “one-hybrid fitness for binding parS DNA” value was ≤ 0.2. Consider RNQC, for which the “one-hybrid fitness for binding parS DNA” value was 0.82. Next, QFNS: ≤ 0.2; FHSV: ≤ 0.2; ILNS: ≤ 0.2.

As to NVET, the “one-hybrid fitness for binding parS DNA” value is ≤ 0.2. Next, VALI: ≤ 0.2. Under PCRI stands ≤ 0.2; under WPKG, ≤ 0.2. Under VKSF stands ≤ 0.2; under STEN, ≤ 0.2. GEPK: the “one-hybrid fitness for binding parS DNA” value was ≤ 0.2. In the case of TNVW, the “one-hybrid fitness for binding parS DNA” value is ≤ 0.2.

Take ITEL: the “one-hybrid fitness for binding parS DNA” value was ≤ 0.2. Under ILMM stands ≤ 0.2.

As to QIGS, the “one-hybrid fitness for binding parS DNA” value is ≤ 0.2. In the case of LRWK, the “one-hybrid fitness for binding parS DNA” value is ≤ 0.2. Next, KCTT: ≤ 0.2; AEHP: ≤ 0.2; FAMR: ≤ 0.2. On to DKGS, for which the “one-hybrid fitness for binding parS DNA” value was ≤ 0.2. For VEKP, the “one-hybrid fitness for binding parS DNA” value is ≤ 0.2.

For the variant RLME, the “one-hybrid fitness for binding parS DNA” value is ≤ 0.2.

Take RQIN: the “one-hybrid fitness for binding parS DNA” value is 0.248. Under HTTK stands ≤ 0.2. With TARE, the “one-hybrid fitness for binding parS DNA” value was ≤ 0.2. KTPT: the “one-hybrid fitness for binding parS DNA” value was ≤ 0.2. Next, RPKC: ≤ 0.2; GYAT: ≤ 0.2. Next, AFSR: ≤ 0.2; NLCA: ≤ 0.2. Under QMRE stands ≤ 0.2; under RAFG, 0.978; under VRHK, ≤ 0.2.

As for SSEH, the “one-hybrid fitness for binding parS DNA” value is ≤ 0.2. IFTS: the “one-hybrid fitness for binding parS DNA” value was ≤ 0.2.
